This passage reports cell count results from the supplement of paper PMC4604168 (melanoma cell lines).

The structures appear in SMILES notation. This is one part of the list. Many values rest on one well or one pass, so single values are uncertain.
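Note: cell number obtained by counting DAPI-stained nuclei in high-throughput microscope images with image analysis software, screen run in 1,536-well plates.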

The subject of one assay is 501Mel. The experiment in a line: cell count relative to DMSO control; melanoma cells; higher = more viable cells. The settings on record: library dose: low library concentration; 72 h.
On to `Cn1cnc2c(F)c(Nc3ccc(Br)cc3Cl)c(C(=O)NOCCO)cc21` [selumetinib] + CCCCCCCCc1ccc(CCC(N)(CO)CO)cc1 [fingolimod] (first compound 0.015 µM, partner dose 2 µM), for which the cell count was found to be 6.46%.

With `CCN(CC)CCNC(=O)c1c(C)[nH]c(/C=C2\C(=O)Nc3ccc(F)cc32)c1C` [sunitinib] + CN1CCN(c2ccc3nc(-c4c(N)c5c(F)cccc5[nH]c4=O)[nH]c3c2)CC1 [Dovitinib] (first compound 0.4 µM, partner dose 0.1 µM), the cell count turned out to be 41.3%.

On to `Cn1cnc2c(F)c(Nc3ccc(Br)cc3Cl)c(C(=O)NOCCO)cc21` [selumetinib] + Cn1c(Nc2ccc(C(F)(F)F)cc2)nc2cc(Oc3ccnc(-c4ncc(C(F)(F)F)[nH]4)c3)ccc21 [CHIR265] (first compound 0.015 µM, partner dose 0.08 µM), for which the cell count stood at 22.1%.

`COc1cc([C@@H]2c3cc4c(cc3[C@@H](O[C@@H]3O[C@@H]5CO[C@@H](C)O[C@H]5[C@H](O)[C@H]3O)[C@H]3COC(=O)[C@H]23)OCO4)cc(OC)c1O` [etoposide] + O=C(Nc1cc(C(F)(F)F)cc(C(F)(F)F)c1)c1cc(Cl)ccc1O [IMD0354] (first compound 0.02 µM, partner dose 0.016 µM): the cell count is 71.7%.

`CCN(CC)CCNC(=O)c1c(C)[nH]c(/C=C2\C(=O)Nc3ccc(F)cc32)c1C` [sunitinib] + CC(=O)O[C@@]12CO[C@@H]1C[C@H](O)[C@@]1(C)C(=O)[C@H](O)C3=C(C)[C@@H](OC(=O)[C@H](O)[C@@H](NC(=O)OC(C)(C)C)c4ccccc4)C[C@@](O)([C@@H](OC(=O)c4ccccc4)[C@H]21)C3(C)C [Docetaxel] (first compound 0.4 µM, partner dose 0.0001 µM) came in with a cell count of 64.4%.

`C[C@]1(O)C[C@@H](c2nc(-c3ccc4ccc(-c5ccccc5)nc4c3)c3c(N)nccn32)C1` + CN1CCN(c2ccc3nc(-c4c(N)c5c(F)cccc5[nH]c4=O)[nH]c3c2)CC1 [Dovitinib] (first compound 0.4 µM, partner dose 0.1 µM) registered a cell count of 28.2%.

The molecule `C[C@]1(O)C[C@@H](c2nc(-c3ccc4ccc(-c5ccccc5)nc4c3)c3c(N)nccn32)C1` + CC(C)C[C@H](NC(=O)[C@H](Cc1ccccc1)NC(=O)c1cnccn1)B(O)O [Bortezomib] (first compound 0.4 µM, partner dose 0.001 µM) had a cell count of 54.8%.

A further assay relates to A101D. Described as above. Conditions: library dose: low library concentration; 72 h.
As to `CCN(CC)CCNC(=O)c1c(C)[nH]c(/C=C2\C(=O)Nc3ccc(F)cc32)c1C` [sunitinib] + Clc1ccc(Nc2nnc(Cc3ccncc3)c3ccccc23)cc1 [vatalanib] (first compound 0.4 µM, partner dose 2 µM), the cell count is 75.3%.

For `COc1cc([C@@H]2c3cc4c(cc3[C@@H](O[C@@H]3O[C@@H]5CO[C@@H](C)O[C@H]5[C@H](O)[C@H]3O)[C@H]3COC(=O)[C@H]23)OCO4)cc(OC)c1O` [etoposide] + Cn1c(Nc2ccc(C(F)(F)F)cc2)nc2cc(Oc3ccnc(-c4ncc(C(F)(F)F)[nH]4)c3)ccc21 [CHIR265] (first compound 0.02 µM, partner dose 0.08 µM), the cell count is 60.8%.

`CCN(CC)CCNC(=O)c1c(C)[nH]c(/C=C2\C(=O)Nc3ccc(F)cc32)c1C` [sunitinib] + O=C(O)[C@@H]1[O][Sb](=[O])([O][Sb]2(=[O])[O][C@H]([C@H](O)CO)[C@H](O)[C@H](C(=O)O)[O]2)[O][C@H]([C@H](O)CO)[C@@H]1O [stibogluconate] (first compound 0.4 µM, partner dose 2 µM): the cell count was found to be 82.3%.

`COc1cc([C@@H]2c3cc4c(cc3[C@@H](O[C@@H]3O[C@@H]5CO[C@@H](C)O[C@H]5[C@H](O)[C@H]3O)[C@H]3COC(=O)[C@H]23)OCO4)cc(OC)c1O` [etoposide] + Cc1nc(Nc2ncc(C(=O)Nc3c(C)cccc3Cl)s2)cc(N2CCN(CCO)CC2)n1 [dasatanib] (first compound 0.02 µM, partner dose 0.004 µM) gave a cell count of 88.5%.

Consider `COc1cc([C@@H]2c3cc4c(cc3[C@@H](O[C@@H]3O[C@@H]5CO[C@@H](C)O[C@H]5[C@H](O)[C@H]3O)[C@H]3COC(=O)[C@H]23)OCO4)cc(OC)c1O` [etoposide] + O=c1[nH]nc(Sc2ncc([N+](=O)[O-])s2)n1-c1ccc2c(c1)OCCO2 [BI78D3] (first compound 0.02 µM, partner dose 0.2 µM), for which the cell count amounted to 101%.

Regarding `Cn1cnc2c(F)c(Nc3ccc(Br)cc3Cl)c(C(=O)NOCCO)cc21` [selumetinib] + Nc1nc(F)nc2c1ncn2[C@@H]1O[C@H](CO)[C@@H](O)[C@@H]1O [fludarabine] (first compound 0.015 µM, partner dose 0.2 µM), the cell count turned out to be 86.2%.

Molecule `Cn1cnc2c(F)c(Nc3ccc(Br)cc3Cl)c(C(=O)NOCCO)cc21` [selumetinib] + Clc1ccc(Nc2nnc(Cc3ccncc3)c3ccccc23)cc1 [vatalanib] (first compound 0.015 µM, partner dose 2 µM) had a cell count of 80.7%.

Molecule `CCN(CC)CCNC(=O)c1c(C)[nH]c(/C=C2\C(=O)Nc3ccc(F)cc32)c1C` [sunitinib] + O=C(O)c1ccc2c(c1)nc(Nc1cccc(Cl)c1)c1ccncc12 [CX4945] (first compound 0.4 µM, partner dose 0.4 µM) showed a cell count of 72.4%.

Take `C[C@]1(O)C[C@@H](c2nc(-c3ccc4ccc(-c5ccccc5)nc4c3)c3c(N)nccn32)C1` + NC1(c2ccc(-c3nc4ccn5c(=O)[nH]nc5c4cc3-c3ccccc3)cc2)CCC1 [MK2206] (first compound 0.4 µM, partner dose 0.4 µM): the cell count was determined as 96%.

Regarding `C[C@]1(O)C[C@@H](c2nc(-c3ccc4ccc(-c5ccccc5)nc4c3)c3c(N)nccn32)C1` + CCCS(=O)(=O)Nc1ccc(F)c(C(=O)c2c[nH]c3ncc(Cl)cc23)c1F [PLX4720] (first compound 0.4 µM, partner dose 0.08 µM), the cell count stood at 85%.

As to `C[C@]1(O)C[C@@H](c2nc(-c3ccc4ccc(-c5ccccc5)nc4c3)c3c(N)nccn32)C1` + C[C@]1(c2nc3c(C(N)=O)cccc3[nH]2)CCCN1 [Veliparib] (first compound 0.4 µM, partner dose 1.4 µM), the cell count amounted to 93.2%.

For the molecule `COc1cc([C@@H]2c3cc4c(cc3[C@@H](O[C@@H]3O[C@@H]5CO[C@@H](C)O[C@H]5[C@H](O)[C@H]3O)[C@H]3COC(=O)[C@H]23)OCO4)cc(OC)c1O` [etoposide] + CN(c1ncccc1CNc1nc(Nc2ccc3c(c2)CC(=O)N3)ncc1C(F)(F)F)S(C)(=O)=O [PF562271] (first compound 0.02 µM, partner dose 0.08 µM), the cell count amounted to 95.5%.

Molecule `C[C@]1(O)C[C@@H](c2nc(-c3ccc4ccc(-c5ccccc5)nc4c3)c3c(N)nccn32)C1` + Clc1ccc(Nc2nnc(Cc3ccncc3)c3ccccc23)cc1 [vatalanib] (first compound 0.4 µM, partner dose 2 µM) came in with a cell count of 90.8%.

`COc1cc([C@@H]2c3cc4c(cc3[C@@H](O[C@@H]3O[C@@H]5CO[C@@H](C)O[C@H]5[C@H](O)[C@H]3O)[C@H]3COC(=O)[C@H]23)OCO4)cc(OC)c1O` [etoposide] + O=C(O)[C@@H]1[O][Sb](=[O])([O][Sb]2(=[O])[O][C@H]([C@H](O)CO)[C@H](O)[C@H](C(=O)O)[O]2)[O][C@H]([C@H](O)CO)[C@@H]1O [stibogluconate] (first compound 0.02 µM, partner dose 2 µM) came in with a cell count of 94.7%.

With `CCN(CC)CCNC(=O)c1c(C)[nH]c(/C=C2\C(=O)Nc3ccc(F)cc32)c1C` [sunitinib] + Cn1c(Nc2ccc(C(F)(F)F)cc2)nc2cc(Oc3ccnc(-c4ncc(C(F)(F)F)[nH]4)c3)ccc21 [CHIR265] (first compound 0.4 µM, partner dose 0.08 µM), the cell count worked out at 57.4%.

`CCN(CC)CCNC(=O)c1c(C)[nH]c(/C=C2\C(=O)Nc3ccc(F)cc32)c1C` [sunitinib] + CNC(=O)c1cc(Oc2ccc(NC(=O)Nc3ccc(Cl)c(C(F)(F)F)c3)cc2)ccn1 [sorafenib] (first compound 0.4 µM, partner dose 0.4 µM) returned a cell count of 83.2%.

In turn, `C[C@]1(O)C[C@@H](c2nc(-c3ccc4ccc(-c5ccccc5)nc4c3)c3c(N)nccn32)C1` + C=C(c1ccc(C(=O)O)cc1)c1cc2c(cc1C)C(C)(C)CCC2(C)C [Bexarotene] (first compound 0.4 µM, partner dose 2 µM) yielded a cell count of 90.5%.

`CCN(CC)CCNC(=O)c1c(C)[nH]c(/C=C2\C(=O)Nc3ccc(F)cc32)c1C` [sunitinib] + CN(c1ncccc1CNc1nc(Nc2ccc3c(c2)CC(=O)N3)ncc1C(F)(F)F)S(C)(=O)=O [PF562271] (first compound 0.4 µM, partner dose 0.08 µM) came in with a cell count of 78.6%.

The molecule `CCN(CC)CCNC(=O)c1c(C)[nH]c(/C=C2\C(=O)Nc3ccc(F)cc32)c1C` [sunitinib] + NC1(c2ccc(-c3nc4ccn5c(=O)[nH]nc5c4cc3-c3ccccc3)cc2)CCC1 [MK2206] (first compound 0.4 µM, partner dose 0.4 µM) came in with a cell count of 61.9%.

In turn, `Cn1cnc2c(F)c(Nc3ccc(Br)cc3Cl)c(C(=O)NOCCO)cc21` [selumetinib] + CNC(=O)c1cc(Oc2ccc(NC(=O)Nc3ccc(Cl)c(C(F)(F)F)c3)cc2)ccn1 [sorafenib] (first compound 0.015 µM, partner dose 0.4 µM) returned a cell count of 89.7%.
